According to PubChem BioAssay AID1745845 (National Center for Advancing Translational Sciences (NCATS), 2022):
In all, about 360,000 compounds went through this assay and about 2,600 (0.72%) were called active. Inconclusive means that the source gave no clear call. Such entries were picked first, then a sample of the others. Calls follow the shape of the dose curve; as a rule, active = well fitted inhibition curve with a large enough effect; inconclusive = small, poorly fitted or top-dose-only effect; inactive = no such curve, though single readings can be large or run the other way. Potencies of inconclusive entries are doubtful fits and often do not repeat.

experiment: Primary qHTS for Inhibitors of ATXN expression; conditions: HEK-293 ATXN2-luciferase reporter, luminescence, 24 h; activity change, negative = inhibition: at 57 µM (top of the series); also: nearly all actives have a fitted effect of over 55% in size
Procedure, shortened: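 qHTS (up to 57 uM final) was run with 24 h compound exposure of reporter cells at 37 °C. Each well was multiplexed: SteadyGlo luminescence measured ATXN2-luciferase expression after a fluorogenic Gly-Phe-AFC viability readout (25 uM final).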
% is scaled to controls: 0 for no effect and ±100 for the full control effect; potency is read from the fitted curve at half-maximal effect; tags tell the direction and shape of the fitted curve.

Potency, active:
CCCC[C@H](CN[C@@H](CNC)[C@H](C)CC)NCCC12CCC(CC1)C2 28.2 µM, Cc1c(C(=O)Nc2ccc(S(=O)(=O)N(C)C3CCN(C)CC3)cc2)oc2c(Cl)cccc12 25.1 µM, CC1CCCCN1CCCNC(=O)c1ccc2c(c1)sc1nc(-c3ccc(F)cc3)cn12 (stereo not given) 14.1 µM

Potency, inconclusive:
CC(=O)NNC(=S)NC(=O)C(c1ccccc1)c1ccccc1 22.4 µM [inhibitor, single point], COc1cc(C(=O)OC(C)C(=O)N2CCc3ccccc3C2)ccc1OCC(=O)N1CCOCC1 (stereo not given) 1.41 µM [inhibitor, full curve, poor fit], Cc1ccc(/C=C2/Sc3ccc(C(=O)NCc4ccccn4)cc3NC2=O)cc1 14.1 µM [inhibitor, partial curve, poor fit], CC1CCCCN1CCCNC(=O)c1[nH]c2ccccc2c1Sc1ccc(Cl)cc1 (stereo not given) 39.8 µM [inhibitor, single point], Cn1c(=O)c2c(nc(NCc3ccco3)n2C/C=C/c2ccccc2)n(C)c1=O 15.8 µM [inhibitor, partial curve], O=C1NC(c2ccccc2)=C(c2nc3ccccc3s2)C(c2ccc(O)cc2)N1 (stereo not given) 39.8 µM [inhibitor, single point], Cc1nn(C)c(C(=O)Nc2ccc(S(=O)(=O)NC34CC5CC(CC(C5)C3)C4)cc2)c1Br 28.2 µM [inhibitor, single point], CCOC(=O)C1CCCCN1C(=O)c1cc2ccc(OC)cc2c2cc(OC)c(OC)cc12 (stereo not given) 39.8 µM [inhibitor, single point], CC(=O)Nc1cc(-c2ccc(N(C)C)cc2)cn2c(-c3ccc(F)cc3)cnc12 39.8 µM [inhibitor, single point], O=C(CCN1CCN(c2ccccc2)CC1)N/N=C/c1ccccc1OC(F)F 22.4 µM [inhibitor, single point], COC(=O)[C@]1(CC(C)C)N[C@H](c2ccc(-c3ccc(Cl)c(Cl)c3)cc2)[C@@H]2C(=O)N(C)C(=O)[C@@H]21 28.2 µM [inhibitor, partial curve, poor fit], COc1ccc(C(=O)Nn2c(SCC(=O)NC3CCCCC3)nc3ccccc3c2=O)cc1 15.8 µM [inhibitor, single point], CCc1nc2c(OCc3ccc(Cl)cc3)cccn2c1N(C)C(=O)c1cccs1 28.2 µM [inhibitor, single point], O=C(/C=C/c1ccccc1)NC(NC(=S)Nc1ccc(Cl)cc1Cl)C(Cl)(Cl)Cl (stereo not given) 35.5 µM [inhibitor, single point], COc1ccc(NC(=O)c2cccc(N3C(=O)c4ccc(C(=O)Nc5ccc(OC)c(O)c5)cc4C3=O)c2)cc1O 17.8 µM [inhibitor, partial curve, poor fit], COc1ccc(NS(=O)(=O)c2cccc(NC(=O)c3ccc(S(=O)(=O)N4CCCCCC4)cc3)c2)cc1 3.16 µM [inhibitor, partial curve], COc1cccc(-c2ncc3ccccc3c2COC(=O)N(C)C)c1 17.8 µM [inhibitor, partial curve, poor fit], Cc1ccc(C2C3=C(NCCN=C3c3ccccc3)C(=O)N2c2ccccc2)cc1 (stereo not given) 35.5 µM [inhibitor, single point], N#C/C(=C(/O)COC(=O)CCCNC(=O)c1ccc(Cl)cc1)c1nc2ccccc2[nH]1 31.6 µM [inhibitor, partial curve, poor fit], O=C(CSc1cn(CCNC(=O)c2ccccc2F)c2ccccc12)Nc1ccccc1F 25.1 µM [inhibitor, single point], c1ccc(CCNCCCOc2cccc3ccccc23)cc1 39.8 µM [inhibitor, single point], O=c1cc(C(F)(F)F)[nH]c2c(C(F)(F)F)cccc12 22.4 µM [inhibitor, single point], Cc1c(Cl)cccc1NC(=S)NNc1ncc(C(F)(F)F)cc1Cl 35.5 µM [inhibitor, single point], O=C(NN=Cc1cc([N+](=O)[O-])ccc1O)c1cccc2ccccc12 23.8 µM [inhibitor, partial curve, poor fit], O=c1c2cc(Br)ccc2nc(-c2cccc(C(F)(F)F)c2)n1O 22.4 µM [inhibitor, single point], Nc1cccc2c(N)cccc12 39.8 µM [inhibitor, partial curve, poor fit], Cc1ccc(C2c3[nH]c4ccccc4c3C[C@H]3C(=O)N(c4ccccc4C(=O)NCCCN4CCOCC4)C(=O)N23)cc1 (stereo not given in full) 35.5 µM [inhibitor, single point], Cc1cccc(Nc2nc(N[C@@H]3CCCC[C@H]3N)ncc2C(N)=O)c1 24.3 µM [inhibitor, partial curve], CC(C)(C)c1cc(NC(=O)c2c(F)cccc2Cl)n(-c2ccccc2)n1 8.44 µM [inhibitor, partial curve, poor fit], COc1ccccc1S(=O)(=O)Cc1ccc(C(=O)N2CCN(c3cccc(Cl)c3)CC2)o1 12.6 µM [inhibitor, partial curve, poor fit], CC(C)N(C(=O)[C@H]1C[C@H](CC(=O)NCCCN(C)C)C(=O)N2CCc3c([nH]c4cc(-c5ccco5)ccc34)[C@]12C)C(C)C 28.2 µM [inhibitor, single point], OC(CNC1CCCc2ccccc21)COc1c(Cl)cccc1Cl (stereo not given) 10 µM [inhibitor, partial curve, poor fit], Cc1c(C=O)c2ccccc2n1CCOc1ccccc1 22.4 µM [inhibitor, partial curve, poor fit], CCOC(=O)N1CCC2(CC1)C(C#N)=C(N)Oc1c2sc2nc(C)cc(C)c12 31.6 µM [inhibitor, single point], O=C(c1cccs1)N1CCN(C(=O)c2cccs2)C1=S 39.8 µM [inhibitor, single point], COc1cccc2nc3c(C(=O)NCCN(C)C)cccc3cc12 6.7 µM [inhibitor, full curve, poor fit], N#C/C(=N\Nc1ccc(Cl)cc1)C(=O)c1ccsc1 39.8 µM [inhibitor, single point], O=C(NNCc1ccccc1)c1ccccc1 14.1 µM [inhibitor, partial curve, poor fit], CCOc1ccccc1C(=O)Nc1cc(Cl)ccc1O 14.1 µM [inhibitor, partial curve, poor fit], O=c1c(N2CCN(c3cccc(Cl)c3)CC2)csc2ccccc12 39.8 µM [inhibitor, single point], CCO[C@@H]1OC(C(=O)NCc2nc3ccccc3[nH]2)=C[C@H](c2csc3ccccc23)[C@H]1CCCO 39.8 µM [inhibitor, single point]

Activity change, negative = inhibition, inactive:
CN(C)c1ccc(-c2nc3cnccn3c2Nc2cccc(C(F)(F)F)c2)cc1 10.8%, CCOC(=O)N1CCN(c2cc3[nH]c(=S)[nH]c3cc2F)CC1 0.622%, COc1ccc(OC)c(NC(=S)Nc2ccccc2)c1 15.7%, COc1cc(C2CC(=O)Nc3cc(C)c(C)cc32)cc(OC)c1OC (stereo not given) -19.5%, CCc1ccc(NCc2cc3ccc(OC)cc3n(CC(=O)Nc3ccc(C(C)C)cc3)c2=O)cc1 4.35%, COc1ccccc1N(CC(O)COc1ccccc1)S(=O)(=O)c1ccccc1 (stereo not given) -0.475%, CC1=C(C(=O)N2CCOCC2)CC(CC(=O)NCc2cccs2)C(=O)N1Cc1ccc(C(C)(C)C)cc1 (stereo not given) 3.47%, CNC(=O)c1ccccc1Sc1ccc2c(C=Cc3ccccn3)n[nH]c2c1 9.09%, CCc1nc2ccc(C(=O)N3CCN(c4ccccc4)CC3)cn2c1N(CCC(C)C)CCN(C)C 0%, CCOc1ccc(S(=O)(=O)c2cn(C)c3ccccc3c2=O)cc1 -4.61%, OCC1(Cc2ccccc2)CCN(Cc2cnc(-c3ccc(Cl)cc3)nc2)CC1 22.1%, Cc1nn(-c2ccccc2)c(N)c1Sc1ccccc1[N+](=O)[O-] -2.64%, O=C(CCCn1c(=O)c2ccccc2n(CC(=O)Nc2cccc(Cl)c2)c1=O)NCc1ccc2c(c1)OCO2 -2.24%, CC(C)(C)n1ncc(Oc2ccccc2[N+](=O)[O-])c(Cl)c1=O -12.4%, COc1cc(C2N=C(N)Nc3nc4ccccc4n32)ccc1OCC(=O)O (stereo not given) -1.52%, COc1cc(OC)c2c(-c3ccccc3)cc(=O)oc2c1C(CCN1CCN(c2ccccc2)CC1)c1ccc(N(C)C)cc1 (stereo not given) -0.277%, COc1ccc(-c2cnc3c(NC=O)cc(-c4ccc(F)cc4)cn23)cc1OC -5.31%, COc1cccc(OC2(C)CCN(Cc3cccn3-c3nccs3)C2)c1 (stereo not given) -19.9%, S=C(NCc1ccco1)Nc1cc(-c2ccccc2)[nH]n1 4.51%, COc1ccc2[nH]c(=O)c(CN(Cc3ccco3)Cc3nnnn3Cc3ccccc3)cc2c1 9.12%, N#C/C(=C\c1cc([N+](=O)[O-])c(N2CCOCC2)cc1N1CCOCC1)c1nc2ccccc2[nH]1 -7.21%
